Columns and labels:
[1] = test system: Capan-2 cells (K-Ras G12V)
[2] = test system: AGS cells (K-Ras G12D)

Row | Structure (SMILES) | IC50 [1] [nM] | IC50 [2] [nM]
1 | C#Cc1c(F)ccc2cc(N)cc(-c3nc4c5c(nc(OC[C@@]67CCCN6C[C@H](F)C7)nc5c3F)N3CC(C#N)COCC3N4C)c12 (stereo partly drawn) [Compound 172] | 56.4 | 
2 | CN(C)CC1(COc2nc3c4c(nc(-c5ccc(F)c6sc(N)c(C#N)c56)c(F)c4n2)N(C)[C@@H]2COCCCN32)CC1(F)F (stereo partly drawn) [Compound 164] | 33.3 | 
3 | C#Cc1c(F)ccc2cc(N)cc(-c3nc4c5c(nc(OC[C@]67CC(=C)CN6C[C@@H](OC)C7)nc5c3F)N3CCCOC[C@H]3N4C)c12 [Compound 170] | 29.6 | 91.6
4 | C#Cc1c(F)ccc2cc(N)cc(-c3nc4c5c(nc(OCC6(CN7CCOCC7)CC6(F)F)nc5c3F)N3CCCOC[C@H]3N4C)c12 (stereo partly drawn) [Compound 165] | 32 | 87.9

From patent US20260200947A1, “FUSED CYCLIC COMPOUNDS AND USE THEREOF” (Jacobio Pharmaceuticals Co., Ltd., priority 2022, published 2026)
